Assay results taken from paper PMC5892938.
This is one part of the list. At the low end of the ranking the order means little.
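Further: DESeq read counts versus GST-SBP nonspecific binding control pulldown.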

Each sequence was assayed against GST-SBP-SLBP (stem-loop binding protein) (UniProt Q14493) (assay: targeted RNA Bind-n-Seq). Conditions: RBNS binding buffer: 25 mM Tris pH 7.5, 150 mM KCl, 3 mM MgCl2, 0.1% Tween, 0.5 mg/mL BSA, 1 mM DTT; 27 nM protein, 750 pM RNA pool; temperature not stated; high values mean tight binding.
“GGUCACGUCUCAAUCAACUCUUUUCCCAGGGAAACCCCUGGCUAAUUCAACAGCUCGCAGUCAAG” was tested, and the binding signal (log2 fold change) was 0.167.
With “GGUCACGUCUCAAUCAACUCAACUCCCAGGGAAACCCCUGGUUUAUUCAACAGCUCGCAGUCAAG” the binding signal (log2 fold change) was 0.0772.
In the case of “GGUCACGUCUCAAUCAACUCAAUUUCCAGGGAAAGCCCUGGUUUACUCAACAGCUCGCAGUCAAG”, the binding signal (log2 fold change) was -0.098.
Work on “GGUCACGUCUCAAUCAACUCAUUCUCCAGGGAAAUCCCUGGUUUUUUCAACAGCUCGCAGUCAAG” yielded a binding signal (log2 fold change) of 0.0408.
“GGUCACGUCUCAAUCAACUCAACUGAGGGGGGGAAAACCCCUUUACCCUCUACAUCAACAGCUCGCAGUCAAG” was tested, and the binding signal (log2 fold change) was 0.0722.
Work on “GGUCACGUCUCAAUCAACUCAUUUCCAGGAGUUUGCUCCUGUAUUUUCAACAGCUCGCAGUCAAG” yielded a binding signal (log2 fold change) of -0.224.
Work on “GGUCACGUCUCAAUCAACUCUUCUCCCAGGGAAAUCCCUGGCAUUUUCAACAGCUCGCAGUCAAG” yielded a binding signal (log2 fold change) of 0.0418.
Sequence “GGUCACGUCUCAAUCAACUCAACUCCAGGAGUUUCCUCCUGCUAUGUCAACAGCUCGCAGUCAAG” has a binding signal (log2 fold change) of 0.169.
“GGUCACGUCUCAAUCAACUCUUCCCCAGGAGUUUUCUCCUGCUUACUCAACAGCUCGCAGUCAAG” gave a binding signal (log2 fold change) of 0.0919.
Sequence “GGUCACGUCUCAAUCAACUCAAUUUCCAGGGAAACCCCUGGUAUAUUCAACAGCUCGCAGUCAAG” has a binding signal (log2 fold change) of 0.0859.
Work on “GGUCACGUCUCAAUCAACUCAUCGGCCAGGGAAAUCCCUGGGAAUUUCAACAGCUCGCAGUCAAG” yielded a binding signal (log2 fold change) of -0.0556.
Sequence “GGUCACGUCUCAAUCAACUCAAACGAGGGGGGGAAAACCCCUUUACCCUCACUAUCAACAGCUCGCAGUCAAG” has a binding signal (log2 fold change) of -0.209.
“GGUCACGUCUCAAUCAACUCAUCCCCCAGGGAAAACCCUGGUUUUUUCAACAGCUCGCAGUCAAG” showed a binding signal (log2 fold change) of -0.202.
“GGUCACGUCUCAAUCAACUCUUCCCCAGGAGUUUACUCCUGCUUAUUCAACAGCUCGCAGUCAAG” was tested, and the binding signal (log2 fold change) was -0.234.
In the case of “GGUCACGUCUCAAUCAACUCAUCCUCCAGGGAAAGCCCUGGUAAAUUCAACAGCUCGCAGUCAAG”, the binding signal (log2 fold change) was 0.131.
With “GGUCACGUCUCAAUCAACUCUUACGAGGGGGGGAAAACCCCUUUACCCUCACUAUCAACAGCUCGCAGUCAAG” the binding signal (log2 fold change) was 0.219.
With “GGUCACGUCUCAAUCAACUCUCUAGAGGGGGGGAAAACCCCUUUGCCCUCCACUUCAACAGCUCGCAGUCAAG” the binding signal (log2 fold change) was -0.08.
With “GGUCACGUCUCAAUCAACUCAAGUCCCAGGGAAAGCCCUGGCAAUUUCAACAGCUCGCAGUCAAG” the binding signal (log2 fold change) was -0.06.
“GGUCACGUCUCAAUCAACUCAUCUCCAGGAGUUUUCUCCUGCUAUUUCAACAGCUCGCAGUCAAG” showed a binding signal (log2 fold change) of 0.174.
With “GGUCACGUCUCAAUCAACUCAGUCUCCAGGGAAAUCCCUGGCAUAUUCAACAGCUCGCAGUCAAG” the binding signal (log2 fold change) was 0.0224.
“GGUCACGUCUCAAUCAACUCAAACGAGGGGGGGAAAACCCCUUUACCCUCAUCAUCAACAGCUCGCAGUCAAG” gave a binding signal (log2 fold change) of 0.172.
Work on “GGUCACGUCUCAAUCAACUCUUUUGCAGGAGUUUCCUCCUGGUAUUUCAACAGCUCGCAGUCAAG” yielded a binding signal (log2 fold change) of -0.0916.
Work on “GGUCACGUCUCAAUCAACUCUAUUCCCAGGGAAACCCCUGGUAUAUUCAACAGCUCGCAGUCAAG” yielded a binding signal (log2 fold change) of 0.249.
Sequence “GGUCACGUCUCAAUCAACUCCCCAGAGGGGGGGAAAACCCCUUUACCCUCAAUAUCAACAGCUCGCAGUCAAG” has a binding signal (log2 fold change) of -0.38.
“GGUCACGUCUCAAUCAACUCAUUCGAGGGGGGGAAAACCCCUUUACCCUCACCGUCAACAGCUCGCAGUCAAG” showed a binding signal (log2 fold change) of -0.116.
For “GGUCACGUCUCAAUCAACUCAACUCCCAGGGAAAGCCCUGGCUAACUCAACAGCUCGCAGUCAAG”, the binding signal (log2 fold change) was -0.0981.
Sequence “GGUCACGUCUCAAUCAACUCUCCCGAGGGGGGGAAAACCCCUUUGCCCUCAACAUCAACAGCUCGCAGUCAAG” has a binding signal (log2 fold change) of -0.169.
For “GGUCACGUCUCAAUCAACUCAUCCCCCAGGGAAAGCCCUGGCAAUCUCAACAGCUCGCAGUCAAG”, the binding signal (log2 fold change) was -0.00118.
“GGUCACGUCUCAAUCAACUCAAUUUCAGGAGUUUCCUCCUGUAUUCUCAACAGCUCGCAGUCAAG” gave a binding signal (log2 fold change) of 0.173.
Work on “GGUCACGUCUCAAUCAACUCAUCCUCCAGGGAAAACCCUGGCUUUCUCAACAGCUCGCAGUCAAG” yielded a binding signal (log2 fold change) of -0.00496.
“GGUCACGUCUCAAUCAACUCUUUUCCAGGAGUUUUCUCCUGCUAAUUCAACAGCUCGCAGUCAAG” was tested, and the binding signal (log2 fold change) was 0.0626.
“GGUCACGUCUCAAUCAACUCUUUUCCCAGGGAAAUCCCUGGUAUAUUCAACAGCUCGCAGUCAAG” showed a binding signal (log2 fold change) of 0.0879.
For “GGUCACGUCUCAAUCAACUCACACGAGGGGGGGAAAACCCCUUUACCCUCACCUUCAACAGCUCGCAGUCAAG”, the binding signal (log2 fold change) was -0.308.
In the case of “GGUCACGUCUCAAUCAACUCUAUUUCCAGGGAAAACCCUGGCGUAUUCAACAGCUCGCAGUCAAG”, the binding signal (log2 fold change) was -0.105.
For “GGUCACGUCUCAAUCAACUCAUAAGAGGGGGGGAAAACCCCUUUACCCUCGUAAUCAACAGCUCGCAGUCAAG”, the binding signal (log2 fold change) was -0.247.
“GGUCACGUCUCAAUCAACUCUAUAGAGGGGGGGAAAACCCCUUUACCCUCCUUAUCAACAGCUCGCAGUCAAG” showed a binding signal (log2 fold change) of 0.246.
Sequence “GGUCACGUCUCAAUCAACUCAAUCCCCAGGGAAACCCCUGGUUUACUCAACAGCUCGCAGUCAAG” has a binding signal (log2 fold change) of -0.0384.
Sequence “GGUCACGUCUCAAUCAACUCUUUUUCCAGGGAAACCCCUGGUAUAUUCAACAGCUCGCAGUCAAG” has a binding signal (log2 fold change) of 0.0376.
In the case of “GGUCACGUCUCAAUCAACUCAAUUCCCAGGGAAAUCCCUGGUAUUUUCAACAGCUCGCAGUCAAG”, the binding signal (log2 fold change) was -0.0802.
For “GGUCACGUCUCAAUCAACUCAUCUCCCAGGGAAAUCCCUGGUAAUUUCAACAGCUCGCAGUCAAG”, the binding signal (log2 fold change) was -0.142.
Work on “GGUCACGUCUCAAUCAACUCAUCCUCCAGGGAAAUCCCUGGCAUAUUCAACAGCUCGCAGUCAAG” yielded a binding signal (log2 fold change) of 0.0753.
Work on “GGUCACGUCUCAAUCAACUCUAUUUCCAGGGAAAACCCUGGCAUACUCAACAGCUCGCAGUCAAG” yielded a binding signal (log2 fold change) of -0.148.
“GGUCACGUCUCAAUCAACUCUAUUCCAGGAGUUUCCUCCUGCUUAUUCAACAGCUCGCAGUCAAG” gave a binding signal (log2 fold change) of 0.156.
For “GGUCACGUCUCAAUCAACUCAUCCUCCAGGGAAACCCCUGGCUAUCUCAACAGCUCGCAGUCAAG”, the binding signal (log2 fold change) was 0.3.
In the case of “GGUCACGUCUCAAUCAACUCUUUCUCCAGGGAAAGCCCUGGUAAUCUCAACAGCUCGCAGUCAAG”, the binding signal (log2 fold change) was 0.00552.
In the case of “GGUCACGUCUCAAUCAACUCAAUCUCCAGGGAAAUCCCUGGCAAACUCAACAGCUCGCAGUCAAG”, the binding signal (log2 fold change) was 0.221.
Sequence “GGUCACGUCUCAAUCAACUCAUUUUCAGGAGUUUCCUCCUGCUUUUUCAACAGCUCGCAGUCAAG” has a binding signal (log2 fold change) of -0.0574.
“GGUCACGUCUCAAUCAACUCAAUCUCCAGGGAAAACCCUGGCAAACUCAACAGCUCGCAGUCAAG” was tested, and the binding signal (log2 fold change) was 0.176.
With “GGUCACGUCUCAAUCAACUCAAUCUCAGGAGUUUCCUCCUGCUAUCUCAACAGCUCGCAGUCAAG” the binding signal (log2 fold change) was 0.115.
Work on “GGUCACGUCUCAAUCAACUCAUCUUCAGGAGUUUUCUCCUGUAAUCUCAACAGCUCGCAGUCAAG” yielded a binding signal (log2 fold change) of 0.0587.
Sequence “GGUCACGUCUCAAUCAACUCAUCCGCAGGAGUUUUCUCCUGGUAUUUCAACAGCUCGCAGUCAAG” has a binding signal (log2 fold change) of -0.258.
With “GGUCACGUCUCAAUCAACUCUUCCCCAGGAGUUUCCUCCUGUAAAUUCAACAGCUCGCAGUCAAG” the binding signal (log2 fold change) was 0.00759.
Sequence “GGUCACGUCUCAAUCAACUCCUUAGAGGGGGGGAAAACCCCUUUACCCUCGUUAUCAACAGCUCGCAGUCAAG” has a binding signal (log2 fold change) of 0.302.
“GGUCACGUCUCAAUCAACUCUUCUUCCAGGGAAAACCCUGGUUUUCUCAACAGCUCGCAGUCAAG” gave a binding signal (log2 fold change) of -0.292.
Work on “GGUCACGUCUCAAUCAACUCAUUUUCAGGAGUUUGCUCCUGCUAAUUCAACAGCUCGCAGUCAAG” yielded a binding signal (log2 fold change) of -0.13.
“GGUCACGUCUCAAUCAACUCUUUUCCCAGGGAAAUCCCUGGCUUACUCAACAGCUCGCAGUCAAG” gave a binding signal (log2 fold change) of 0.0663.
In the case of “GGUCACGUCUCAAUCAACUCAACUCCAGGAGUUUCCUCCUGUAUACUCAACAGCUCGCAGUCAAG”, the binding signal (log2 fold change) was 0.179.
With “GGUCACGUCUCAAUCAACUCUUCCCCCAGGGAAAUCCCUGGUAAAUUCAACAGCUCGCAGUCAAG” the binding signal (log2 fold change) was 0.164.
With “GGUCACGUCUCAAUCAACUCUUCGUCCAGGGAAAGCCCUGGUAUUCUCAACAGCUCGCAGUCAAG” the binding signal (log2 fold change) was 0.118.
“GGUCACGUCUCAAUCAACUCAAUUUCAGGAGUUUACUCCUGUUUACUCAACAGCUCGCAGUCAAG” gave a binding signal (log2 fold change) of 0.058.
“GGUCACGUCUCAAUCAACUCAAGUCCCAGGGAAAUCCCUGGUUUAUUCAACAGCUCGCAGUCAAG” was tested, and the binding signal (log2 fold change) was -0.149.
Work on “GGUCACGUCUCAAUCAACUCAUUCGAGGGGGGGAAAACCCCUUUACCCUCAACAUCAACAGCUCGCAGUCAAG” yielded a binding signal (log2 fold change) of -0.113.
In the case of “GGUCACGUCUCAAUCAACUCCUCCGAGGGGGGGAAAACCCCUUUACCCUCAAAAUCAACAGCUCGCAGUCAAG”, the binding signal (log2 fold change) was 0.0269.
Work on “GGUCACGUCUCAAUCAACUCACUAGAGGGGGGGAAAACCCCUUUGCCCUCCACAUCAACAGCUCGCAGUCAAG” yielded a binding signal (log2 fold change) of 0.209.
Sequence “GGUCACGUCUCAAUCAACUCAGUUUCCAGGGAAAGCCCUGGCUUAUUCAACAGCUCGCAGUCAAG” has a binding signal (log2 fold change) of 0.0972.
“GGUCACGUCUCAAUCAACUCAUCCUCAGGAGUUUACUCCUGUAUAUUCAACAGCUCGCAGUCAAG” showed a binding signal (log2 fold change) of -0.204.
Sequence “GGUCACGUCUCAAUCAACUCCAAAGAGGGGGGGAAAACCCCUUUGCCCUCCAAUUCAACAGCUCGCAGUCAAG” has a binding signal (log2 fold change) of 0.304.
With “GGUCACGUCUCAAUCAACUCUUUCUCAGGAGUUUCCUCCUGUAUACUCAACAGCUCGCAGUCAAG” the binding signal (log2 fold change) was -0.0391.
For “GGUCACGUCUCAAUCAACUCUUCUCCCAGGGAAAACCCUGGUUAUUUCAACAGCUCGCAGUCAAG”, the binding signal (log2 fold change) was 0.0327.
Work on “GGUCACGUCUCAAUCAACUCCCAAGAGGGGGGGAAAACCCCUUUGCCCUCACUUUCAACAGCUCGCAGUCAAG” yielded a binding signal (log2 fold change) of -0.405.
In the case of “GGUCACGUCUCAAUCAACUCAGUUUCAGGAGUUUCCUCCUGUAUUUUCAACAGCUCGCAGUCAAG”, the binding signal (log2 fold change) was -0.116.
Sequence “GGUCACGUCUCAAUCAACUCUUCUUCCAGGGAAAGCCCUGGCAUACUCAACAGCUCGCAGUCAAG” has a binding signal (log2 fold change) of 0.0417.
Work on “GGUCACGUCUCAAUCAACUCUCUAGAGGGGGGGAAAACCCCUUUGCCCUCAAACUCAACAGCUCGCAGUCAAG” yielded a binding signal (log2 fold change) of -0.338.
“GGUCACGUCUCAAUCAACUCCUUAGAGGGGGGGAAAACCCCUUUACCCUCAUUAUCAACAGCUCGCAGUCAAG” gave a binding signal (log2 fold change) of -0.00522.
